Laboratory results as given in paper PMC4047078.
Substitutions are numbered along the chain they refer to. Numbers in names are those of the source. No constants are given. Whether binding was seen depends on the method and setting. For some assays here: In cells and extracts the contact can be indirect. Some results given as binding are weak or reduced against the parent protein; the word gives no strength. Each block holds one binder with its values, some of them ahead of it.

How the values were obtained:
[1] = target: T1, AtGRIP_(aa605–788) (Arabidopsis thaliana) (UniProt Q8S2T0); test: two-hybrid; AH109 yeast, pGBKT7 and pGADT7 fusions; growth on SD/-Trp/-Leu/-His/-Ade, 7 days at 30°C; X-gal test of the MEL1 reporter
T1 sequence: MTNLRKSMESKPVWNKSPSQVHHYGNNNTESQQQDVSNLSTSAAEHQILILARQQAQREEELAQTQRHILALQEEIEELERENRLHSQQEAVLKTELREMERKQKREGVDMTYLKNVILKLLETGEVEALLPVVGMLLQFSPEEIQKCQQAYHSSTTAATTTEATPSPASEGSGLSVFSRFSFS

[2] = target: T2, AtGRIP_(aa1-604) (Arabidopsis thaliana) (UniProt Q8S2T0); test: as above
T2 sequence: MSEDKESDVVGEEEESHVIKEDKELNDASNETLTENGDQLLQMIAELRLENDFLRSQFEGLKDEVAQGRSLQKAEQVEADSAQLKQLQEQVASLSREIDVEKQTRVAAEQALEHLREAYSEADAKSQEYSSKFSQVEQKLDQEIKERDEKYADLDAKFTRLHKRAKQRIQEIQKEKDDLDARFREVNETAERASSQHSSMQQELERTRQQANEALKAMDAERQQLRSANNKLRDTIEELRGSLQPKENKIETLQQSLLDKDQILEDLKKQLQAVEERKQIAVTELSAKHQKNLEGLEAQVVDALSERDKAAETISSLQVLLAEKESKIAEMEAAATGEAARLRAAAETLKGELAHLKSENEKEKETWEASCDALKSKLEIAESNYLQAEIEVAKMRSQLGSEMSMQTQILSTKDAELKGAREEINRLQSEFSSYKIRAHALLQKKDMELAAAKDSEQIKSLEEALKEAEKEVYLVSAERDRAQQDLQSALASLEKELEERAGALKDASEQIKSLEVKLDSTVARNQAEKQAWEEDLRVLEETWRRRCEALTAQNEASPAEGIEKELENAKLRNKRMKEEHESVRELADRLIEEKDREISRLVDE

[3] = target: AtGRIP_(aa711–776) (Arabidopsis thaliana) (UniProt Q8S2T0); test: as above
[4] = target: AtGRIP_(aa711–766) (Arabidopsis thaliana) (UniProt Q8S2T0); test: as above
[5] = target: AtGRIP_(aa711–753) (Arabidopsis thaliana) (UniProt Q8S2T0); test: as above
[6] = target: Endogenous Arabidopsis AtGRIP (Arabidopsis thaliana (endogenous in seedlings)) (UniProt Q8S2T0); test: cross-linking; supernatant of Arabidopsis seedling extract in 0.1 M PBS pH 7.0 with DTSSP (0.05 mM in the methods, 0.25 mM in the legend) 30 min at 25°C; non-reducing SDS-PAGE and immunoblot with anti-AtGRIP antibody
[7] = target: full-length AtGRIP (Arabidopsis thaliana) (UniProt Q8S2T0); test: two-hybrid; AH109 yeast, pGBKT7 and pGADT7 fusions; growth on SD/-Trp/-Leu/-His/-Ade, 7 days at 30°C; X-gal test of the MEL1 reporter
[8] = target: AtGRIP_(aa711–788) (Arabidopsis thaliana) (UniProt Q8S2T0); test: as above
[9] = target: AtGRIP_(aa711–788)-L742A (Arabidopsis thaliana) (UniProt Q8S2T0); test: as above

binding [1]: binds | binding [2]: no binding
B1: AtGRIP_(aa605–788) (domain or fragment, UniProt Q8S2T0 605-788)
chain: T1 sequence

binding [3]: no binding
B2: AtGRIP_(aa711–776) (domain or fragment, UniProt Q8S2T0 711-776)
chain: EGVDMTYLKNVILKLLETGEVEALLPVVGMLLQFSPEEIQKCQQAYHSSTTAATTTEATPSPASEG

binding [4]: no binding
B3: AtGRIP_(aa711–766) (domain or fragment, UniProt Q8S2T0 711-766)
chain: EGVDMTYLKNVILKLLETGEVEALLPVVGMLLQFSPEEIQKCQQAYHSSTTAATTT

binding [5]: no binding
B4: AtGRIP_(aa711–753) (domain or fragment, UniProt Q8S2T0 711-753)
chain: EGVDMTYLKNVILKLLETGEVEALLPVVGMLLQFSPEEIQKCQ

binding [6]: binds
B5: Endogenous Arabidopsis AtGRIP (protein, UniProt Q8S2T0 1-788)
chain: MSEDKESDVVGEEEESHVIKEDKELNDASNETLTENGDQLLQMIAELRLENDFLRSQFEGLKDEVAQGRSLQKAEQVEADSAQLKQLQEQVASLSREIDVEKQTRVAAEQALEHLREAYSEADAKSQEYSSKFSQVEQKLDQEIKERDEKYADLDAKFTRLHKRAKQRIQEIQKEKDDLDARFREVNETAERASSQHSSMQQELERTRQQANEALKAMDAERQQLRSANNKLRDTIEELRGSLQPKENKIETLQQSLLDKDQILEDLKKQLQAVEERKQIAVTELSAKHQKNLEGLEAQVVDALSERDKAAETISSLQVLLAEKESKIAEMEAAATGEAARLRAAAETLKGELAHLKSENEKEKETWEASCDALKSKLEIAESNYLQAEIEVAKMRSQLGSEMSMQTQILSTKDAELKGAREEINRLQSEFSSYKIRAHALLQKKDMELAAAKDSEQIKSLEEALKEAEKEVYLVSAERDRAQQDLQSALASLEKELEERAGALKDASEQIKSLEVKLDSTVARNQAEKQAWEEDLRVLEETWRRRCEALTAQNEASPAEGIEKELENAKLRNKRMKEEHESVRELADRLIEEKDREISRLVDEMTNLRKSMESKPVWNKSPSQVHHYGNNNTESQQQDVSNLSTSAAEHQILILARQQAQREEELAQTQRHILALQEEIEELERENRLHSQQEAVLKTELREMERKQKREGVDMTYLKNVILKLLETGEVEALLPVVGMLLQFSPEEIQKCQQAYHSSTTAATTTEATPSPASEGSGLSVFSRFSFS

binding [7]: binds
B6: full-length AtGRIP (protein, UniProt Q8S2T0 1-788)
chain: B5 chain

binding [1]: no binding | binding [2]: binds
B7: AtGRIP_(aa1-604) (domain or fragment, UniProt Q8S2T0 1-604)
chain: T2 sequence

binding [8]: binds
B8: AtGRIP_(aa711–788) (domain or fragment, UniProt Q8S2T0 711-788)
chain: EGVDMTYLKNVILKLLETGEVEALLPVVGMLLQFSPEEIQKCQQAYHSSTTAATTTEATPSPASEGSGLSVFSRFSFS

binding [9]: no binding
B9: AtGRIP_(aa711–788)-L742A (domain or fragment, UniProt Q8S2T0 711-788)
chain: B8 chain with L32A
